Paper PMC12820563, “FoxP3 forms a head-to-head dimer in vivo and stabilizes its multimerization on adjacent microsatellites”
The list shows a part of the results.

Biological target: T1, MBP-FoxP1dN (Mus musculus, UniProt P58462 326-579)
T1 sequence: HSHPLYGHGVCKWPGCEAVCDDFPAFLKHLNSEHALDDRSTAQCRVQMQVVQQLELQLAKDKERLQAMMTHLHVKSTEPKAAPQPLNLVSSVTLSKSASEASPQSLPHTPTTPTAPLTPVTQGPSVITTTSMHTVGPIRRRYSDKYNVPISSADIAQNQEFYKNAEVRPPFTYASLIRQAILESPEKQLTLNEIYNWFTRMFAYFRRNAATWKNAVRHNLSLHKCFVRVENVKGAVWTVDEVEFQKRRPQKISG
Assay: PD-seq (MBP pull-down with sequencing); 20 mM Tris-HCl pH 7.5, 100 mM NaCl, 1.5 mM MgCl2, 0.4 uM protein, 0.1 uM dsDNA library, 30 min, room temperature, amylose pull-down; high values mean tight binding
Details: protein: recombinant; tags: His6-MBP; chain copies: 2; dsDNA, one strand shown
In short: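 Mouse FoxP3 or FoxP1 fragment lacking the N-terminus, His6-MBP-tagged and expressed in E. coli, was incubated at 0.4 µM with 0.1 µM Klenow-filled degenerate double-stranded DNA library for 30 min at room temperature in Tris pH 7.5 buffer with NaCl and MgCl2. Complexes captured on amylose resin were washed three times and their DNA sequenced on Illumina. Binding is reads-per-million enrichment of pull-down over input, replicates pooled.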

Sequence	binding signal
GATGATTGTTCTCCCAGCTGATGAATTCATCGTTTCGAGTAAACAAATTTTCCTAATCTTTCTGTTCAAGCGCCATCTAC	0.963 RPM ratio (pull-down/input)
GATGATTGTTCTCCCAGCTGATGAATTGCCCATGTCGAGTAAACAAATTTTCCTAATCTTTCTGTTCAAGCGCCATCTAC	0.854 RPM ratio (pull-down/input)
GATGATTGTTCTCCCAGCTGATGAATTCCTATAATCGAGTAAACAAATTTTCCTAATCTTTCTGTTCAAGCGCCATCTAC	1.07 RPM ratio (pull-down/input)
GATGATTGTTCTCCCAGCTGATGAATTTGGCCTCTCGAGTAAACAAATTTTCCTAATCTTTCTGTTCAAGCGCCATCTAC	0.865 RPM ratio (pull-down/input)
GATGATTGTTCTCCCAGCTGATGAATTCGTATCCTCGAGTAAACAAATTTTCCTAATCTTTCTGTTCAAGCGCCATCTAC	0.871 RPM ratio (pull-down/input)
GATGATTGTTCTCCCAGCTGATGAATTTTATGACTCGAGTAAACAAATTTTCCTAATCTTTCTGTTCAAGCGCCATCTAC	0.916 RPM ratio (pull-down/input)
GATGATTGTTCTCCCAGCTGATGAATTGAGTTCTTCGAGTAAACAAATTTTCCTAATCTTTCTGTTCAAGCGCCATCTAC	0.823 RPM ratio (pull-down/input)
GATGATTGTTCTCCCAGCTGATGAATTACGCGGGTCGAGTAAACAAATTTTCCTAATCTTTCTGTTCAAGCGCCATCTAC	0.899 RPM ratio (pull-down/input)
GATGATTGTTCTCCCAGCTGATGAATTCTAAGTATCGAGTAAACAAATTTTCCTAATCTTTCTGTTCAAGCGCCATCTAC	0.956 RPM ratio (pull-down/input)
GATGATTGTTCTCCCAGCTGATGAATTAATGTTCTCGAGTAAACAAATTTTCCTAATCTTTCTGTTCAAGCGCCATCTAC	1.04 RPM ratio (pull-down/input)
GATGATTGTTCTCCCAGCTGATGAATTGGATCGTTCGAGTAAACAAATTTTCCTAATCTTTCTGTTCAAGCGCCATCTAC	0.864 RPM ratio (pull-down/input)
GATGATTGTTCTCCCAGCTGATGAATTGCTCGGCTCGAGTAAACAAATTTTCCTAATCTTTCTGTTCAAGCGCCATCTAC	0.843 RPM ratio (pull-down/input)
GATGATTGTTCTCCCAGCTGATGAATTAGAATTCTCGAGTAAACAAATTTTCCTAATCTTTCTGTTCAAGCGCCATCTAC	0.808 RPM ratio (pull-down/input)
GATGATTGTTCTCCCAGCTGATGAATTGTACGATTCGAGTAAACAAATTTTCCTAATCTTTCTGTTCAAGCGCCATCTAC	0.934 RPM ratio (pull-down/input)
GATGATTGTTCTCCCAGCTGATGAATTGGGTTACTCGAGTAAACAAATTTTCCTAATCTTTCTGTTCAAGCGCCATCTAC	0.886 RPM ratio (pull-down/input)
GATGATTGTTCTCCCAGCTGATGAATTTTTGATATCGAGTAAACAAATTTTCCTAATCTTTCTGTTCAAGCGCCATCTAC	1.17 RPM ratio (pull-down/input)
GATGATTGTTCTCCCAGCTGATGAATTCCCGCAGTCGAGTAAACAAATTTTCCTAATCTTTCTGTTCAAGCGCCATCTAC	0.75 RPM ratio (pull-down/input)
GATGATTGTTCTCCCAGCTGATGAATTCAGGCCCTCGAGTAAACAAATTTTCCTAATCTTTCTGTTCAAGCGCCATCTAC	0.789 RPM ratio (pull-down/input)
GATGATTGTTCTCCCAGCTGATGAATTTCCGACATCGAGTAAACAAATTTTCCTAATCTTTCTGTTCAAGCGCCATCTAC	0.936 RPM ratio (pull-down/input)
GATGATTGTTCTCCCAGCTGATGAATTCGACAGATCGAGTAAACAAATTTTCCTAATCTTTCTGTTCAAGCGCCATCTAC	0.791 RPM ratio (pull-down/input)
GATGATTGTTCTCCCAGCTGATGAATTAAGCCAATCGAGTAAACAAATTTTCCTAATCTTTCTGTTCAAGCGCCATCTAC	1.03 RPM ratio (pull-down/input)

Sequence	binding signal
GATGATTGTTCTCCCAGCTGATGAATTTGACTTCTCGAGTAAACAAATTTTCCTAATCTTTCTGTTCAAGCGCCATCTAC	0.82 RPM ratio (pull-down/input)
GATGATTGTTCTCCCAGCTGATGAATTTCGTTGATCGAGTAAACAAATTTTCCTAATCTTTCTGTTCAAGCGCCATCTAC	1.11 RPM ratio (pull-down/input)
GATGATTGTTCTCCCAGCTGATGAATTGTCGCGGTCGAGTAAACAAATTTTCCTAATCTTTCTGTTCAAGCGCCATCTAC	0.917 RPM ratio (pull-down/input)
GATGATTGTTCTCCCAGCTGATGAATTACCAAGTTCGAGTAAACAAATTTTCCTAATCTTTCTGTTCAAGCGCCATCTAC	1.04 RPM ratio (pull-down/input)
GATGATTGTTCTCCCAGCTGATGAATTGAACGATTCGAGTAAACAAATTTTCCTAATCTTTCTGTTCAAGCGCCATCTAC	0.875 RPM ratio (pull-down/input)
GATGATTGTTCTCCCAGCTGATGAATTTTCTTTCTCGAGTAAACAAATTTTCCTAATCTTTCTGTTCAAGCGCCATCTAC	0.955 RPM ratio (pull-down/input)
GATGATTGTTCTCCCAGCTGATGAATTCCCTCCTTCGAGTAAACAAATTTTCCTAATCTTTCTGTTCAAGCGCCATCTAC	0.773 RPM ratio (pull-down/input)
GATGATTGTTCTCCCAGCTGATGAATTAATAATGTCGAGTAAACAAATTTTCCTAATCTTTCTGTTCAAGCGCCATCTAC	1.13 RPM ratio (pull-down/input)
GATGATTGTTCTCCCAGCTGATGAATTGTCGTTCTCGAGTAAACAAATTTTCCTAATCTTTCTGTTCAAGCGCCATCTAC	1.12 RPM ratio (pull-down/input)
GATGATTGTTCTCCCAGCTGATGAATTGTATTCGTCGAGTAAACAAATTTTCCTAATCTTTCTGTTCAAGCGCCATCTAC	1.27 RPM ratio (pull-down/input)
GATGATTGTTCTCCCAGCTGATGAATTTCCTTTTTCGAGTAAACAAATTTTCCTAATCTTTCTGTTCAAGCGCCATCTAC	0.838 RPM ratio (pull-down/input)
GATGATTGTTCTCCCAGCTGATGAATTTCGACACTCGAGTAAACAAATTTTCCTAATCTTTCTGTTCAAGCGCCATCTAC	0.91 RPM ratio (pull-down/input)
GATGATTGTTCTCCCAGCTGATGAATTGTTGTTGTCGAGTAAACAAATTTTCCTAATCTTTCTGTTCAAGCGCCATCTAC	3.2 RPM ratio (pull-down/input)
GATGATTGTTCTCCCAGCTGATGAATTGGATACATCGAGTAAACAAATTTTCCTAATCTTTCTGTTCAAGCGCCATCTAC	1.11 RPM ratio (pull-down/input)
GATGATTGTTCTCCCAGCTGATGAATTATGAATTTCGAGTAAACAAATTTTCCTAATCTTTCTGTTCAAGCGCCATCTAC	1.03 RPM ratio (pull-down/input)
GATGATTGTTCTCCCAGCTGATGAATTGAAAAGCTCGAGTAAACAAATTTTCCTAATCTTTCTGTTCAAGCGCCATCTAC	0.825 RPM ratio (pull-down/input)
GATGATTGTTCTCCCAGCTGATGAATTATGTCCCTCGAGTAAACAAATTTTCCTAATCTTTCTGTTCAAGCGCCATCTAC	0.996 RPM ratio (pull-down/input)
GATGATTGTTCTCCCAGCTGATGAATTTTGATTATCGAGTAAACAAATTTTCCTAATCTTTCTGTTCAAGCGCCATCTAC	1.79 RPM ratio (pull-down/input)
GATGATTGTTCTCCCAGCTGATGAATTGGGCCTCTCGAGTAAACAAATTTTCCTAATCTTTCTGTTCAAGCGCCATCTAC	0.766 RPM ratio (pull-down/input)
GATGATTGTTCTCCCAGCTGATGAATTACTGATATCGAGTAAACAAATTTTCCTAATCTTTCTGTTCAAGCGCCATCTAC	1.18 RPM ratio (pull-down/input)
GATGATTGTTCTCCCAGCTGATGAATTTCGGTTCTCGAGTAAACAAATTTTCCTAATCTTTCTGTTCAAGCGCCATCTAC	0.825 RPM ratio (pull-down/input)

Sequence	binding signal
GATGATTGTTCTCCCAGCTGATGAATTAACAATTTCGAGTAAACAAATTTTCCTAATCTTTCTGTTCAAGCGCCATCTAC	1.31 RPM ratio (pull-down/input)
GATGATTGTTCTCCCAGCTGATGAATTCACTTTCTCGAGTAAACAAATTTTCCTAATCTTTCTGTTCAAGCGCCATCTAC	0.841 RPM ratio (pull-down/input)
GATGATTGTTCTCCCAGCTGATGAATTTGATGGTTCGAGTAAACAAATTTTCCTAATCTTTCTGTTCAAGCGCCATCTAC	0.912 RPM ratio (pull-down/input)
GATGATTGTTCTCCCAGCTGATGAATTTTCCGATTCGAGTAAACAAATTTTCCTAATCTTTCTGTTCAAGCGCCATCTAC	0.884 RPM ratio (pull-down/input)
GATGATTGTTCTCCCAGCTGATGAATTACGATGTTCGAGTAAACAAATTTTCCTAATCTTTCTGTTCAAGCGCCATCTAC	1.18 RPM ratio (pull-down/input)
GATGATTGTTCTCCCAGCTGATGAATTCGACCGATCGAGTAAACAAATTTTCCTAATCTTTCTGTTCAAGCGCCATCTAC	0.823 RPM ratio (pull-down/input)
GATGATTGTTCTCCCAGCTGATGAATTACGTGCGTCGAGTAAACAAATTTTCCTAATCTTTCTGTTCAAGCGCCATCTAC	1.08 RPM ratio (pull-down/input)
GATGATTGTTCTCCCAGCTGATGAATTTACGCTATCGAGTAAACAAATTTTCCTAATCTTTCTGTTCAAGCGCCATCTAC	1.23 RPM ratio (pull-down/input)
GATGATTGTTCTCCCAGCTGATGAATTTAGTGCATCGAGTAAACAAATTTTCCTAATCTTTCTGTTCAAGCGCCATCTAC	1.5 RPM ratio (pull-down/input)
GATGATTGTTCTCCCAGCTGATGAATTAGAGTCATCGAGTAAACAAATTTTCCTAATCTTTCTGTTCAAGCGCCATCTAC	0.903 RPM ratio (pull-down/input)
GATGATTGTTCTCCCAGCTGATGAATTATGCACGTCGAGTAAACAAATTTTCCTAATCTTTCTGTTCAAGCGCCATCTAC	1.07 RPM ratio (pull-down/input)
GATGATTGTTCTCCCAGCTGATGAATTCTTCTTCTCGAGTAAACAAATTTTCCTAATCTTTCTGTTCAAGCGCCATCTAC	0.819 RPM ratio (pull-down/input)
GATGATTGTTCTCCCAGCTGATGAATTTTCAGCCTCGAGTAAACAAATTTTCCTAATCTTTCTGTTCAAGCGCCATCTAC	0.815 RPM ratio (pull-down/input)
GATGATTGTTCTCCCAGCTGATGAATTTAATTTTTCGAGTAAACAAATTTTCCTAATCTTTCTGTTCAAGCGCCATCTAC	0.972 RPM ratio (pull-down/input)
GATGATTGTTCTCCCAGCTGATGAATTAGACTGATCGAGTAAACAAATTTTCCTAATCTTTCTGTTCAAGCGCCATCTAC	0.851 RPM ratio (pull-down/input)
GATGATTGTTCTCCCAGCTGATGAATTCTTAATTTCGAGTAAACAAATTTTCCTAATCTTTCTGTTCAAGCGCCATCTAC	1.1 RPM ratio (pull-down/input)
GATGATTGTTCTCCCAGCTGATGAATTATTTACTTCGAGTAAACAAATTTTCCTAATCTTTCTGTTCAAGCGCCATCTAC	2.15 RPM ratio (pull-down/input)
GATGATTGTTCTCCCAGCTGATGAATTGAATGGCTCGAGTAAACAAATTTTCCTAATCTTTCTGTTCAAGCGCCATCTAC	0.823 RPM ratio (pull-down/input)
GATGATTGTTCTCCCAGCTGATGAATTGTCTTAGTCGAGTAAACAAATTTTCCTAATCTTTCTGTTCAAGCGCCATCTAC	1.09 RPM ratio (pull-down/input)
GATGATTGTTCTCCCAGCTGATGAATTTGAACGGTCGAGTAAACAAATTTTCCTAATCTTTCTGTTCAAGCGCCATCTAC	0.856 RPM ratio (pull-down/input)
GATGATTGTTCTCCCAGCTGATGAATTTTACTGGTCGAGTAAACAAATTTTCCTAATCTTTCTGTTCAAGCGCCATCTAC	0.796 RPM ratio (pull-down/input)
